Reference: patent US20200079850A1

B1: SRP1449-D05 (scFv, from a related filing, part only)
scFv-Fc: QVQLVESGGGVVQPGRSLRLSCAASGFTFRSFGMHWVRQAPGKGLEWVAVIWYDGSVKYYADSVKGRFTISRDNSKNTLYLQMNSLRAEDTAVYYCAREWADVSWDAGLDVWGQGTTVTVSSGGGGSGGGGSGGGGS[no letters for about 100 residues]KFGPGTKVDIKAAGSDQ[no letters for human IgG1 Fc with changes]
B2: SRP1558-A06 (scFv)
chain: EVQLLESGGGLVQPGGSLRLSCAASGFTFSESTMSWVRQAPGKGLEWVGFITSDSGTTDYADSVKGRFTISRDNSKNTLYLQMNSLRAEDTAVYYCAKVFEGGVRPFSDYWGQGTLVTVSSGGGGSGGGGSGGGGSEIVLTQSPGTLSLSPGERATLSCRASQSVSSNPLAWYQQKPGQAPRLLIYGASSRATGIPDRFSGSGSGTDFTLTISRLEPEDFAVYYCQQYMAGPPTFGQGTKVEIKAAGSDQ[no letters for human IgG1 Fc with changes]GSGDYKDDDDKGSG
B3: SRP1558-F01 (scFv)
chain: EVQLLESGGGLVQPGGSLRLSCAASGFTFPDSSMSWVRQAPGKGLEWVGVITDNSGNTDYADSVKGRFTISRDNSKNTLYLQMNSLRAEDTAVYYCAKVFEGGVRPYSDYWGQGTLVTVSSGGGGSGGGGSGGGGSEIVLTQSPGTLSLSPGERATLSCRASQSVSSGNPAWYQQKPGQAPRLLIYGASSRATGIPDRFSGSGSGTDFTLTISRLEPEDFAVYYCQQYTAGPPTFGQGTKVEIKAAGSDQ[no letters for human IgG1 Fc with changes]GSGDYKDDDDKGSG
B4: SRP1448-D09 (scFv)
chain: EVQLLESGGGLVQPGGSLRLSCAASGFTFTDSSMSWVRQAPGKGLEWVGVITGNSGTTDYADSVKGRFTISRDNSKNTLYLQMNSLRAEDTAVYYCAKVYEGGVRPYSDYWGQGTLVTVSSGGGGSGGGGSGGGGSEIVLTQSPGTLSLSPGERATLSCRASQSVSSSYLAWYQQKPGQAPRLLIYGASSRATGIPDRFSGSGSGTDFTLTISRLEPEDFAVYYCQQDTAGPPTFGQGTKVEIKAAGSDQ[no letters for human IgG1 Fc with changes]GSGDYKDDDDKGSG

Legend:
[1] = target: human LAG3-Fc (R&D Systems #2319-L3) (human) (UniProt P18627); test: SPR (Biacore), antibody captured by anti-Flag, LAG3-Fc as analyte, 25 C
[2] = target: recombinant human LAG3 protein (rhLAG3), HIS-tagged (ACRO) or biotinylated (R&D Cat #2319-C3) (human) (UniProt P18627); test: flow cytometry competition, rhLAG3 binding to Daudi cells; competitor MHCII
[3] = target: cynomolgus LAG3 expressed on the cell surface (293T or CHO cells) (cynomolgus monkey); test: flow cytometry, 293T cells expressing cyno LAG3

Binder	Kd [1] [nM]	koff [1] [s⁻¹]	kon [1] [M⁻¹ s⁻¹]	IC50 [2] [nM]	Kd [3] [nM]
B1	1.36	0.000627	460000	2.3	–
B2	–	–	–	–	0.3
B3	–	–	–	–	0.7
B4	–	–	–	–	1.6
